Assay results: article PMC11958677
Results are given in words; binding and its absence hold for the method and conditions named. Binding seen in cells or lysates may run through a third protein. Some results given as binding are weak or reduced against the parent protein; the word gives no strength.

The chains behind the UniProt entries cited, without tags or fusion partners. Where a name states a change or a piece, a line headed by the entry shows the natural chain unless it says otherwise. Residues count along the entry.
UniProt P12004: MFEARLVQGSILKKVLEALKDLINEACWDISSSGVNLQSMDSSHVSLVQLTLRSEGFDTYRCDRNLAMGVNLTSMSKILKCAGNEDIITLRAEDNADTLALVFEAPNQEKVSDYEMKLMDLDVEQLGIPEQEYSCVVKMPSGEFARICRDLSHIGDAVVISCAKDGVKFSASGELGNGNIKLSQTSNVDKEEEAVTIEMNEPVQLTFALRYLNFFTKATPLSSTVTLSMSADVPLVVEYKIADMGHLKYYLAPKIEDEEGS
UniProt Q15843, residues 1-76: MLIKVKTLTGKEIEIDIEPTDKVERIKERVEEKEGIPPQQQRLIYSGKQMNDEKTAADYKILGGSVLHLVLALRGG
UniProt Q9Y5A7: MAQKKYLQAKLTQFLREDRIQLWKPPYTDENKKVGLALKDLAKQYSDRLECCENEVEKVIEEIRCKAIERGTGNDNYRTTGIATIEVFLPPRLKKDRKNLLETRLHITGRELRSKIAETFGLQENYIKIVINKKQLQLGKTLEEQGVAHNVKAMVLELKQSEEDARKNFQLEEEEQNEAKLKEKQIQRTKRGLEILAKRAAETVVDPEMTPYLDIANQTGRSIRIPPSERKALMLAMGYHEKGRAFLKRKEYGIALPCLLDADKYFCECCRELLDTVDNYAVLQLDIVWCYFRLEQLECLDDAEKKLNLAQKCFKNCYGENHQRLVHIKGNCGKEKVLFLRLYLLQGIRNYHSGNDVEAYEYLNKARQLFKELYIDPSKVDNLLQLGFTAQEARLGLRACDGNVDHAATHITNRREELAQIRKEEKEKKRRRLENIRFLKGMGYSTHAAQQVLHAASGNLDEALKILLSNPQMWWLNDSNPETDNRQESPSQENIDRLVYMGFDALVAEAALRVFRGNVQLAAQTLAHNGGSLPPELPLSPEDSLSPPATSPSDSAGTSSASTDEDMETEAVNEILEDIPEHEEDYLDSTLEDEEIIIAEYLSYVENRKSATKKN

How the values were obtained:
[1] = target: PCNA, in the GST pull-down experiments (UniProt P12004); assay: pull-down; GST pull-down competition: increasing amounts of His-NEDD8 or of Ub added; complexes with PCNA detected (Fig. 5G)
[2] = target: HA-PCNA (wild-type plasmid of PCNA) (UniProt P12004); assay: co-IP; HA-PCNA or HA-PCNA K164R transfected into HCCLM3 and MHCC97H cells (stably expressing His-NEDD8, blank vector or shNEDD8); immunoprecipitation with anti-HA, immunoblot
[3] = target: HA-PCNA K164R (mutant plasmid of PCNA at the lys164 site) (UniProt P12004); assay: as above
[4] = target: PCNA, in the GST pull-down experiments (UniProt P12004); assay: pull-down; GST pull-down of NUB1 and PCNA, HCCLM3 and MHCC97H cells (Supplementary Fig. 2B); which protein carried GST not told
[5] = target: Proliferating cell nuclear antigen (PCNA), endogenous (human (endogenous in HCCLM3 and MHCC97H)) (UniProt P12004); assay: co-IP; total cell lysates of HCCLM3 and MHCC97H cells; primary antibody and Protein A/G PLUS-Agarose 12 h at 4 °C, three washes with lysis buffer, immunoblot (Supplementary Fig. 2A)
[6] = target: Proliferating cell nuclear antigen (PCNA), endogenous (human (endogenous in HCCLM3 and MHCC97H)) (UniProt P12004); assay: co-IP; endogenous NEDD8 and PCNA in HCCLM3 and MHCC97H cell lysates; primary antibody and Protein A/G PLUS-Agarose 12 h at 4 °C, immunoblot

**Q.** How did the binding [1] turn out when “His-NEDD8, added in the GST pull-down competition (from UniProt Q15843 1-76)” was run?
**A.** binds

**Q.** With “His-NEDD8, stably expressed in HCC cells (from UniProt Q15843 1-76)” as the substance, how does the binding [2] read?
**A.** binds

**Q.** And the binding [3]?
**A.** no binding

**Q.** For “NUB1, in the GST pull-down with PCNA (from UniProt Q9Y5A7 1-615)”, which binding [4] is on record?
**A.** no binding

**Q.** For “Negative regulator of ubiquitin-like protein 1 (NUB1), in the co-IP with PCNA (from UniProt Q9Y5A7 1-615)”, which binding [5] is on record?
**A.** no binding

**Q.** Which binding [6] does the source give for “Neural precursor cells expressed developmentally downregulated 8 (NEDD8), endogenous (from UniProt Q15843 1-76)” here?
**A.** binds

**Q.** What about the binding [3] of the same substance?
**A.** no binding
